Where a chain is given by its changes, count along the chain named.
Tests used:
hTROP-2 = biological target: T1, hTROP-2 (Homo sapiens, UniProt P09758); experiment: Antibody protein level binding assay (ELISA); settings: absorbance at 450 nm
T1 sequence (P09758 27-274): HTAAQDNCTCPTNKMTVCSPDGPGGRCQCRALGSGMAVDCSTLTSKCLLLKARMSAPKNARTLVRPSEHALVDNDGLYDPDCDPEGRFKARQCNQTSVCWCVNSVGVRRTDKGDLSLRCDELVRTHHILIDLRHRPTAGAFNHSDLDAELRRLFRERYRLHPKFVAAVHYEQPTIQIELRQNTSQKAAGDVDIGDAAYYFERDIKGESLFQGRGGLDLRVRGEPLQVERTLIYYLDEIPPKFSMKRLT
Description: hTROP-2 protein was diluted to 1 μg/mL with PBS buffer at pH 7.4 (Shanghai BasalMedia Technologies Co., LTD., B320), added into a 96-well microplate at 100 μL per well, and incubated at 4° C. overnight. After the liquid was discarded, 300 μL of 5% skim milk (BD, 232100) diluted with PBS was added into each well for blocking and incubated at 37° C. for 2 h. After the blocking was completed, the blocking solution was discarded; after the plate was washed 3 times with PBST buffer (pH 7.4, PBS containing 0.1% tween-20), 100 μL of a gradient diluted antibody solution was added into each well and incubated at 37° C. for 1 h. After the incubation was completed, the plate was washed 3 times with PBST buffer, and 100 μL of 1:8000 diluted mouse anti-human IgG (H+L) (Jackson ImmunoResearch, 209-035-088) was added into each well and incubated at 37° C. for 1 h. After the plate was washed 3 times with PBST buffer, 100 μL of TMB chromogenic substrate (KPL, 5120-0077) was added into each well and incubated at room temperature for 10-15 min, and the reaction was terminated by adding 50 μL of 1 M H2504 into each well. The plate was detected for the absorbance at 450 nm using a microplate reader, the binding curves of antibodies to antigen were fitted with software, and the EC50 value was calculated.

TROP-2 = experiment: Antibody endocytosis assay (DT3C cell killing); assay type: cell-based; settings: antibody-DT3C mixture, three days, CTG
FaDu = experiment: Cell activity assay of ADC molecules, FaDu; assay type: cell-based; settings: Table 6-2; second parallel comparison assay
From the text: (§1) The cells used in this assay were as follows: FaDu (+++) purchased from ATCC, Cat. #HTB-43™; HCC827(+++), purchased from ATCC, Cat. #CRL-2868; Colo205(++), purchased from Cell Bank, Chinese Academy of Sciences, Cat. #TCHu102; DMS53 (++), purchased from ATCC, Cat. #CRL-2062™; SK-OV-3(+), purchased from ATCC, Cat. #HTB-77; CHO-K1(−), purchased from ATCC, Cat. #CCL-61™; wherein “+” represents the expression amount of TROP-2 in the cell population, more “+” means that the expression amount of TROP-2 is higher, and “−” means that TROP-2 is not expressed.
(§2) Cell suspensions were prepared with fresh cell medium containing 10% FBS at a density of 3703 cells/mL, and added into the 96-well cell culture plate at 135 μL/well and incubated with 5% carbon dioxide at 37° C. for 16 h. ADC samples were formulated at 5 μM with PBS. The 5 μM of initial concentration was diluted five times with PBS for a total of 8 concentrations. 15 μL of the above ADC solution was added into each well. […] 70 μL of CTG was added into each well and incubated for 10 min at room temperature in dark, the chemiluminescence values were detected using Victor3, and data analysis was performed using the GraphPad Prism software.

DMS53 = experiment: Cell activity assay of ADC molecules, DMS53; assay type: cell-based; settings: Table 6-2; second parallel comparison assay
From the text: as §1, §2

HCC827 = experiment: Cell activity assay of ADC molecules, HCC827; assay type: cell-based; settings: Table 6-2; second parallel comparison assay
From the text: as §1, §2

Colo205 = experiment: Cell activity assay of ADC molecules, Colo205; assay type: cell-based; settings: Table 6-2; second parallel comparison assay
From the text: as §1, §2

CHO-K1 = experiment: Cell activity assay of ADC molecules, CHO-K1; assay type: cell-based, Chinese hamster; settings: Table 6-1; CHO-K1 (TROP-2 not expressed), 6 days, CTG
From the text: as §1, §2

SKOV3 xenograft tumors = experiment: In vivo efficacy, SKOV3 cell CDX mouse model; parameters: species or system Balb/c nude mice; settings: 2 injections; for Mean tumor volume (mm^3) D21 / Tumor inhibition rate TGI (%): D21
Description: (§3) SKOV3 cells (5×10^6) were subcutaneously inoculated in the right flank of Balb/c nude mice, after 23 days of inoculation, the nude mice with heavy weight, too big tumor and too small tumor were removed after the tumor volume was about 180 mm^3, and the remaining mice were randomized into 5 groups of 8 mice according to tumor volume.
Each mouse was intraperitoneally injected with an ADC at 0.1 mL/10 g body weight for a total of 2 injections, and the dose is shown in following table. The tumor volumes and body weights were measured twice a week and the results were recorded. Data were recorded using Excel statistical software: the mean values were calculated as avg; the SD values were calculated as STDEV; the SEM values were calculated as STDEV/SQRT (number of animals per group); GraphPad Prism software was used for plot, and statistical analysis of the data was performed using Two-way ANOVA or One-way ANOVA.
(§4) Tumor volume (V) was calculated as: V=½×Llong×Lshort^2
(§5) Relative tumor proliferation rate T/C(%)=(T−T0)/(C−C0)×100, wherein T and C are the tumor volumes of animals at the end of the experiment in the treatment group and control group, respectively; T0 and C0 are the tumor volumes of animals at the beginning of the experiment in the treatment group and control group, respectively.

Colo205 xenograft tumors = experiment: In vivo efficacy, Colo205 cell CDX mouse model; parameters: species or system Balb/c nude mice; settings: 10 mg/kg i.p. at day 0 and day 10
Description: as §3, with “Colo205 cells” for “SKOV3 cells”, “after 10” for “after 23”, “about 245” for “about 180”, “into 6” for “into 5”
Each mouse was intraperitoneally injected with an ADC at 0.1 mL/10 g body weight at day 0 (DO) and day 10, making a total of 2 injections with a dose of 10 mg/kg. The tumor volumes and body weights were measured twice a week and the results were recorded for 28 days (D28).
(§6) Data were recorded using Excel statistical software: the mean values were calculated as avg; the SD values were calculated as STDEV; the SEM values were calculated as STDEV/SQRT (number of animals per group); GraphPad Prism software was used for plot, and statistical analysis of the data was performed using Two-way ANOVA or One-way ANOVA.
as §4
as §5, with “respectively; To” for “respectively; T0”, “and Co” for “and C0”

FaDu xenograft tumors = experiment: In vivo efficacy, Fadu cell CDX mouse model; parameters: species or system Balb/c nude mice; settings: 1 mg/kg i.p. at days 0 and 8
Description: as §3, with “Fadu” for “SKOV3”, “(3×10^6)” for “(5×10^6)”, “10” for “23”, “245” for “180”
Each mouse was intraperitoneally injected with an ADC at 0.1 mL/10 g body weight at days 0 and 8, making a total of 2 injections with a dose of 1 mg/kg. The tumor volumes and body weights were measured twice a week and the results were recorded for 21 days.
as §6, §4
as §5, with “respectively; To” for “respectively; T0”, “and Co” for “and C0”

B1: TINA: anti-TROP-2 antibody, heavy chain SEQ ID NO: 17, light chain SEQ ID NO: 18, constructed with reference to WO2015098099a1 (antibody)
heavy: QVQLVQSGAEVKKPGASVKVSCKASGYTFTTAGMQWVRQAPGQGLEWMGWINTHSGVPKYAEDFKGRVTISADTSTSTAYLQLSSLKSEDTAVYYCARSGFGSSYWYFDVWGQGTLVTVSS[human IgG1 constant region not printed]
light: DIQMTQSPSSLSASVGDRVTITCKASQDVSTAVAWYQQKPGKAPKLLIYSASYRYTGVPSRFSGSGSGTDFTLTISSLQPEDFAVYYCQQHYITPLTFGQGTKLEIKRTVAAPSVFIFPPSDEQLKSGTASVVCLLNNFYPREAKVQWKVDNALQSGNSQESVTEQDSKDSTYSLSSTLTLSKADYEKHKVYACEVTHQGLSSPVTKSFNRGEC
modifications: Heavy chain of TINA; Light chain of TINA
- Emax (OD value) (hTROP-2): 1.39 OD value
- EC50 (TROP-2): 180 pM
- Emax (TROP-2): 98.7%

B2: ADC-5: antibody PD3 conjugated with compound 58 (Example 58 of CN104755494A) (conjugate)
heavy: EVQLVQSGSELKKPGASVKVSCKASGYTFTNYGMNWVKQAPGQGLKWMGWINTYTGEPTYTQDFKGRFAFSLDTSVSTAYLQISSLKAEDTAVYYCARGGFGSSYWYFDVWGQGTLVTVSS[human IgG1 constant region not printed]
light: B1 light with M4L, T20S, T31I, S60D, Q100A, L104V
- FaDu Emax (%) (FaDu): 101.58%
- DMS53 Emax (%) (DMS53): 92.47%
- HCC827 Emax (%) (HCC827): 88.23%
- Colo205 Emax (%) (Colo205): 99.64%

B3: ADC-4: antibody TINA conjugated with compound 58; made with reference to Example 19 in WO2015098099 (conjugate)
heavy: B1 heavy
light: B1 light
- CHO-K1 Emax (%) (CHO-K1): 1.71%
- Mean tumor volume (mm^3) D0 (SKOV3 xenograft tumors; 1 mg/kg i.p.): 185.17 mm^3
- Mean tumor volume (mm^3) D21 (SKOV3 xenograft tumors; 1 mg/kg i.p.): 1110.52 mm^3
- Tumor inhibition rate TGI (%) (SKOV3 xenograft tumors; 1 mg/kg i.p.): −3%
- Mean tumor volume (mm^3) D0 (SKOV3 xenograft tumors; 3 mg/kg i.p.): 184.17 mm^3
- Mean tumor volume (mm^3) D21 (SKOV3 xenograft tumors; 3 mg/kg i.p.): 873.38 mm^3
- Tumor inhibition rate TGI (%) (SKOV3 xenograft tumors; 3 mg/kg i.p.): 23%
- Mean tumor volume (mm^3) D0 (SKOV3 xenograft tumors; 10 mg/kg i.p.): 183.83 mm^3
- Mean tumor volume (mm^3) D21 (SKOV3 xenograft tumors; 10 mg/kg i.p.): 938.99 mm^3
- Tumor inhibition rate TGI (%) (SKOV3 xenograft tumors; 10 mg/kg i.p.): 16%
- Mean tumor volume (mm^3) D0 (Colo205 xenograft tumors; D0): 201.52 mm^3
- Mean tumor volume (mm^3) D28 (Colo205 xenograft tumors; D28): 513.83 mm^3
- Tumor inhibition rate TGI (%) (Colo205 xenograft tumors; D28): 73%
- Mean tumor volume (mm^3) D0 (FaDu xenograft tumors; D0): 244.41 mm^3
- Mean tumor volume (mm^3) D21 (FaDu xenograft tumors; D21): 1180.96 mm^3
- Tumor inhibition rate TGI (%) (FaDu xenograft tumors; D21): 53%
